In PubChem BioAssay (Tox21):
“And” between values parts separate entries of the source, which are not always exact repeats. Equal values may be shown once. The inconclusive results got no clear call from the source; some entries with a clear call stand among them for comparison. Potencies of inconclusive entries are doubtful fits and often do not repeat. The source made the active and inactive calls. Calls follow the shape of the dose curve; as a rule, active = well fitted activation curve with a large enough effect in the signal ratio in the repeat runs (not every such curve was filed as active); inconclusive = weak or mixed curves, or effect the other way; inactive = no such curve, though single readings can be large or run the other way; the % refers to the signal ratio.
% is scaled to controls: 0 for no effect and ±100 for the full control effect; potency is read from the fitted curve at half-maximal effect; tags tell the direction and shape of the fitted curve or compound fluorescence and quenching.

Each compound was assayed against Peroxisome proliferator-activated receptor gamma (Homo sapiens) (UniProt P37231) (assay: qHTS assay to identify small molecule agonists of the peroxisome proliferator-activated receptor gamma (PPARg) signaling pathway (AID 743094)). Conditions: HEK293H PPARg-UAS-bla, beta-lactamase FRET ratio, 17 h; activation: at 57 µM (top of the series) unless noted.
Sequence of UniProt P37231 (P37231 whole entry, looked up): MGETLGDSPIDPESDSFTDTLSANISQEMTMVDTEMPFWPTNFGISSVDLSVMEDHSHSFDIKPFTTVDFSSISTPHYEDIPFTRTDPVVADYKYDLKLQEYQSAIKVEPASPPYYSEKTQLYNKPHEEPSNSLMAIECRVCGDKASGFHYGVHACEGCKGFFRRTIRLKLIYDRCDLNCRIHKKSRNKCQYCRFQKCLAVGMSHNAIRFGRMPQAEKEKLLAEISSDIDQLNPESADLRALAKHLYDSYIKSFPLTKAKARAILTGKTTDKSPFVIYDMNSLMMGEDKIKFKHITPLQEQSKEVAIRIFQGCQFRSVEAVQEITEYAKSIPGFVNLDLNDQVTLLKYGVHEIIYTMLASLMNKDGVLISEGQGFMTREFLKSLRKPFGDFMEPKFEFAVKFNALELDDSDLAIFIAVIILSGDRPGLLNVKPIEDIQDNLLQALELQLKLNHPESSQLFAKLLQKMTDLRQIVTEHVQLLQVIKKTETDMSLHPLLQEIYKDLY
How it was run: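 Cell-based bla reporter, HEK293H background, PPARg-driven UAS. Pre-incubation 5 h, 37C, 5% CO2. Compound 17 h, 37C. Substrate 1 h RT; fluorescence.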
In the case of CC(C)(C)CC(C)(C)c1ccccc1O, the Potency is reported as inconclusive: 55.2 µM.
In the case of Cc1ccc2nc(-c3ccc(N)cc3)sc2c1S(=O)(=O)O, the Potency is reported as inconclusive: 15.2 µM [activator, partial curve].
With CCCCCC(=O)O[C@]1(C(C)=O)CC[C@H]2[C@@H]3CCC4=CC(=O)CC[C@]4(C)[C@H]3CC[C@@]21C the Potency was inconclusive: 17.3 µM.
In the case of C=C1C(CCl)(CCl)C2(Cl)C(Cl)C(Cl)C1(Cl)C2(Cl)Cl (stereo unspecified), the Potency is reported as inconclusive: 26.8 µM [single point] and inconclusive: 60.9 µM [single point].
With CCc1cc(Cc2cc(CC)cc(C(C)(C)C)c2O)c(O)c(C(C)(C)C)c1 the Potency was inconclusive: 24.5 µM [full curve].
In the case of O=C(CCCCCCCCc1cccnc1)N1CCC(C=C(c2ccccc2)c2ccccc2)CC1, the Potency is reported as inconclusive: 11 µM [rising, partial curve, poor fit].
In the case of O=C(Oc1cccc2cccnc12)c1ccccc1, the Potency is reported as inconclusive: 5.35 µM [activator, full curve, poor fit].
CN(C)c1ccc(SC#N)cc1 was tested, and the “activation” value was inactive: -8.32%.
In the case of CCCCCCCCCCCCc1ccc(O)cc1, the Potency is reported as inconclusive: 38.9 µM [falling, partial curve].
For CCCCCCCCCOC(=O)c1ccc(O)cc1, the Potency was inconclusive: 60.8 µM [falling, single point].
CCC(C)(C)c1ccc(CC(C)CN2C[C@@H](C)O[C@@H](C)C2)cc1 (stereo partly specified) was tested, and the Potency was inconclusive: 23.9 µM [falling, partial curve, poor fit].
